Drawing on the supplement of paper PMC10441789, this text covers antibody binding signal for 40 sequences.

Some of the results follow. Antibody binding of pooled human sera (four to six donors per pool; dilution not stated) to peptides of the Trypanosoma cruzi antigen TSSA on microarrays. Quantile-normalised fluorescence in arbitrary units, mean of duplicate arrays; higher = more binding. No active / inactive call. The uninfected pools are read here as the healthy donors of the same country. The strongest signals lie near the top of the scale (about 60,000).

In this experiment the test system is pooled sera of uninfected people, Colombia. The experiment is described as follows: antibody binding signal (normalised fluorescence) (arbitrary fluorescence units); higher = stronger serum antibody binding to peptide. The protocol: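 Microarray of 15-residue peptides over residues 30-55 of Trypanosoma cruzi TSSAII, each with 1 to 10 substitutions at naturally variable positions, probed with one serum pool per country.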
In turn, KDKKAATGEAPSPSG had an antibody binding signal of 142.
PSGKDNKPAAGGAPS came in with an antibody binding signal of 130.
In the case of GTDNKAATGETPSPP, the antibody binding signal was determined as 107.
The result for PPSGTDNKAATGGAP reads 590; that for TPPSGTEKKTATGET, 178.
The result for GTDNKPAAGEAPSPS reads 109.
Turning to TEKKAAAGEAPSQPG, the antibody binding signal came out at 124.
Sequence ENKTAAGETPSQSGA came in with an antibody binding signal of 126.
KDNKAATGEAPSQPG: the antibody binding signal was 154.
PPSGKDNKAAAGGTP came in with an antibody binding signal of 286.
Then KKAATGEAPSPSGAS, with 249.
The result for SGTENKAATGGAPSQ reads 198; that for TPPSGTEKKPATGEA, 280.
The sequence PSGTEKKTATGEAPS yielded an antibody binding signal of 211.
TENKTATGGAPSPSG showed an antibody binding signal of 171.
Then TDNKTAAGGAPSPSG, with 230.
The result for KDNKTATGEAPSQPG reads 278; that for SSTPPSGTDNKTATG, 201.
In the case of KENKTAAGETPSPSG, the antibody binding signal came out at 149.
The sequence STPPSGKENKPATGE came in with an antibody binding signal of 780.
The result for NKPATGGAPSQSGAS reads 318; that for DNKPAAGEAPSPSGA, 149.
SGKENKAAAGGTPSP yielded an antibody binding signal of 320.
As for TPPSGTDNKAATGEA, the antibody binding signal came out at 164.
The result for EKKAATGEAPSQPGA reads 664.
The result for SGKENKTATGGTPSQ reads 434; that for PSGTEKKAATGETPS, 629; that for GTEKKAATGEAPSPS, 586.
The sequence ENKPAAGGAPSPSGA gave an antibody binding signal of 230.
As to KDKKTATGGTPSQSG, the antibody binding signal came to 100.
The result for GTENKPATGETPSPP reads 195; that for KKAATGGTPSPPGAS, 468; that for TEKKAATGGAPSPSG, 1100.
The result for KKPATGEAPSPPGAS reads 234; that for KKPATGGAPSPPGAS, 175.
The result for GTENKAATGETPSQS reads 149; that for GTDKKTAAGEAPSQS, 629; that for NKTAAGGTPSPPGAS, 795.
GKENKAAAGGAPSPS: the antibody binding signal stood at 127.
With KKTAAGGAPSQSGAS, the antibody binding signal came to 148.
